In article PMC9352240:

Molecular target: recombinant full-length wild-type human tau isoform 2N3R (human) (UniProt P10636)
Experiment: thioflavin T fluorescence aggregation kinetics; self-aggregation of recombinant tau alone; 30 uM tau, 60 ug/ml heparin, 10 uM ThT, 20 mM Tris pH 7.4, 37°C; t1/2 = time to half maximum ThT intensity

t1/2 of self-aggregation (ThT fluorescence): 4.2 h
Substance: recombinant full-length wild-type human tau isoform 2N3R (a stretch of the chain, letters omitted) (natural protein; other documents disagree on this pair)
